The values below come from ChEMBL document CHEMBL4888484, “Replenishing the malaria drug discovery pipeline: Screening and hit evaluation of the MMV Hit Generation Library 1 (HGL1) against asexual blood stage Plasmodium falciparum ,using a nano luciferase reporter read-out” (2022).

SMILES strings stand for the structures. The campaign covered roughly 150,000 compounds. About 540 (0.36%) showed an effect of 50% or more. This is one part of the list.

The test system of the experiment is Plasmodium falciparum. As to the kind of experiment: Primary screen in NF54 nanoGlo assay, in single point, at 2uM, 72h; a lower Z score goes with more inhibition. It counts as functional, Erythrocyte. The conditions noted are these: timepoint 72 hour.
In general, % Inhibition refers to the relative decrease from the control value, in per cent. In the case of `CC(C)(C)OC(=O)NC[C@H](NC1CCOCC1)C1CCCC1`, the “% Inhibition” value is -1% and the Z score came to 0.17.
In the case of `Brc1ccc(OCCN2CCCN3CCC[C@H]3C2)cc1`, the “% Inhibition” value is listed as -12% and the Z score amounted to 2.28.
`C[C@@H](CS(C)(=O)=O)C(=O)N(C)CC1CCCCCCC1`: the “% Inhibition” value stood at 1% and the Z score is given as -0.12.
`CC(C)c1nc(CNC[C@]2(c3ccccc3)CC2(C)C)co1`: the “% Inhibition” value is -15% and the Z score came to 1.87.
The matching figures for `O=C(NCCN1CCOCC1)c1ccccc1NC(=O)c1cnoc1C1CC1`: -14% and 1.8.
With `C=CC[C@]1(C(=O)O)CCCN(Cc2c(C)n[nH]c2C)C1`, the “% Inhibition” value worked out at 5% and the Z score is listed as -1.04.
In the case of `Cc1cc(=O)n(Cc2nc3c(cnn3C)c(=O)[nH]2)cc1C(F)(F)F`, the “% Inhibition” value is on record as 6% and the Z score is -0.73.
Taken in the same sequence, the figures for `O=c1ccncn1CC1CCN(c2ncnc3c2CCC3)CC1` were -1% and 0.13.
Consider `CC(C)c1cncnc1NCc1cccnc1Oc1ccc(F)c(F)c1`, for which the “% Inhibition” value is recorded as -2% and the Z score stood at 0.43.
Consider `O=C1CCCc2cc(C(=O)NCCCn3nc4ccccn4c3=O)ccc2N1`, for which the “% Inhibition” value is listed as 2% and the Z score was -0.18.
On to `Cc1oc(Br)cc1C(=O)NC1(C)CCOC1C1CC1` (configuration not stated), for which the “% Inhibition” value is listed as -5% and the Z score is on record as 0.58.
On to `COc1cc2c(N3CCC([C@H](O)C(=O)NC4CC4)CC3)ccnc2cc1F`, for which the “% Inhibition” value is listed as -6% and the Z score was found to be 0.61.
Taken in the same sequence, the figures for `CCCC[C@H](Oc1ccc(C(C)(C)CC)cc1C(C)(C)CC)C(=O)Nc1ccc(NC(=O)C(F)(F)C(F)(F)C(F)(F)F)c(O)c1` were 39% and -4.52.
Take `N#Cc1ccc(CN2CCC(NC(=O)C[C@@H]3NC(=O)c4ccccc4NC3=O)CC2)cc1`: the “% Inhibition” value was -4% and the Z score is listed as 0.47.
As for `CCn1nc(C)c2c1c(=O)n(Cc1ccco1)c(=O)n2CC(=O)NC1CCCC1`, the “% Inhibition” value was 5% and the Z score is reported as -0.45.
Taken in the same sequence, the figures for `COc1cc(F)c(CN2C[C@@H](CN3CCCCC3)[C@@H](CO)C2)cc1OC` were -7% and 1.2.
Consider `O=C(c1cc(C2CC2)n[nH]1)N1CC[C@@]2(CCCN(CC3CCC3)C2=O)C1`, for which the “% Inhibition” value is reported as -11% and the Z score came out at 1.83.
Taken in the same sequence, the figures for `CCCN1C(=O)c2cc(C(=O)Nc3ccc(C)c(F)c3)ccc2[C@H]1Nc1ccc(C)c(F)c1` were -2% and 0.29.
Taken in the same sequence, the figures for `Cc1nnnn1CCC(=O)NCCc1noc(C(F)(F)F)n1` were -5% and 1.01.
In the case of `N#Cc1nc(C2CC2)oc1N1CCN(C(=O)c2csnn2)CC1`, the “% Inhibition” value is -4% and the Z score stood at 0.49.
For `CN1CCN(Cc2cccnc2)c2ccccc21`, the “% Inhibition” value was determined as 4% and the Z score was -0.5.
Taken in the same sequence, the figures for `CC1CCC(C(=O)O)C(C)N1Cc1noc(C2CCC2)n1` (configuration not stated) were -2% and 0.34.
Taken in the same sequence, the figures for `CCn1nc(C)c(CNc2nc3c(s2)c(C)nn3C)c1C` were 6% and -1.13.
The matching figures for `N[C@H]1CCCN(C(=O)c2ccc3ncccc3c2)C1`: -13% and 1.87.
For the compound `Cc1cccc(NC(=O)N2CCCN(c3nc4cc(Cl)ccc4n4cccc34)CC2)c1C`, the “% Inhibition” value was -9% and the Z score is reported as 1.31.
As for `Cc1cccc(C(=O)N2CCC3(CCCC3)C2)c1F`, the “% Inhibition” value is listed as -13% and the Z score is reported as 1.39.
The matching figures for `CC(C)N1C2CCC1CN(C(=O)c1ccccc1-n1cnnn1)CC2` (configuration not stated): -6% and 0.61.
Taken in the same sequence, the figures for `CO[C@@](F)(C(=O)Nc1ccc(OC(F)(F)Cl)cc1)C(F)(F)F` were -9% and 1.15.
For the compound `Cc1nccc(NC(=O)C2(S(C)(=O)=O)CCCC2)c1Cl`, the “% Inhibition” value is given as -3% and the Z score is reported as 0.46.
The matching figures for `CN(Cc1ccncc1)C[C@@H]1CC=CCC1`: 0% and 0.05.
Turning to `CC(NCc1ccccc1)C1Cc2ccccc21` (configuration not stated), the “% Inhibition” value was 7% and the Z score is -1.3.
The matching figures for `CC(C)(NC(=O)C1CCN(c2ccc3nncn3n2)CC1)c1cccs1`: -3% and 0.37.
Turning to `COCCN1C(=O)CN(S(=O)(=O)c2ccccc2)C[C@@]1(C)C(=O)NCc1ccc(F)cc1`, the “% Inhibition” value is -3% and the Z score was determined as 0.44.
Taken in the same sequence, the figures for `COc1cc(C(=O)NC2(c3ccccc3)COC2)sn1` were -1% and 0.26.
Taken in the same sequence, the figures for `CCN(CC)CCOc1cc(Cl)ccc1Cl` were 8% and -1.08.
As for `CC1(C)Cc2nc(C(C)(C)C)ncc2[C@@H](NCC2CC2)C1`, the “% Inhibition” value is on record as 3% and the Z score is -0.32.
The matching figures for `CCn1cc(CN(C)CCc2ccccn2)cn1`: -7% and 0.86.
The matching figures for `COc1ccc(CC(=O)NCc2csc(C)n2)cc1`: 13% and -1.51.
`Cc1csc([C@@H](C)CNC(=O)NCc2ccc(C#N)cc2F)n1`: the “% Inhibition” value is reported as -11% and the Z score stood at 1.16.
On to `Cc1cc(F)ccc1N1CCCC(N2CCCC(C(=O)O)C2)C1=O` (configuration not stated), for which the “% Inhibition” value is -8% and the Z score was 1.21.
Taken in the same sequence, the figures for `O=C(CC[C@H]1CCCN(C(=O)c2n[nH]c3c2CCC3)C1)N1CCN(c2ccccn2)CC1` were -16% and 2.11.
Turning to `CCOc1ncccc1-c1ccnn1C(C)C`, the “% Inhibition” value is reported as -19% and the Z score is 2.42.
For the compound `Cc1noc(C)c1CN1CCOCS1(=O)=O`, the “% Inhibition” value is -9% and the Z score was found to be 1.71.
The matching figures for `CC(C)c1ccc(C(=O)N2CCC[C@@]3(CCCO3)CC2)c(=O)[nH]1`: -1% and 0.18.
Taken in the same sequence, the figures for `CC(=O)c1cccc(NC(=O)Cc2c(C)nc3nc(C4CCCCC4)nn3c2C)c1` were 42% and -4.76.
The matching figures for `CN(CC1(O)CCCC1)C(=O)c1cc(Cl)cc(F)c1N`: 2% and -0.36.
As for `CC(C)CN(C(=O)c1cncc(Br)c1)C(C)C`, the “% Inhibition” value was found to be 6% and the Z score is listed as -1.19.
The matching figures for `CCN1CCN(CCC(=O)N[C@@H](C)c2ccc(Cl)s2)CC1`: 4% and -0.43.
The matching figures for `Cc1ccc(CNC(=O)c2cccc(Oc3cc(-c4ccc(F)cc4)ncn3)c2)cc1`: -4% and 0.47.
In the case of `O=S1(=O)C=C(N2CCN(C3CCCCC3)CC2)c2ccccc21`, the “% Inhibition” value was -28% and the Z score is listed as 3.29.
With `CC(C)NC(=O)COC(=O)c1cc(F)ccc1Cl`, the “% Inhibition” value is listed as 28% and the Z score was -3.79.
For the compound `CC(C)c1[nH]ncc1C(=O)NC(C)C1CCN(Cc2ccccc2)C1` (configuration not stated), the “% Inhibition” value was determined as 2% and the Z score is listed as -0.29.
The matching figures for `CC(C)(C)OC(=O)N1CCC(CC(=O)N2CCOC3CCCCC32)CC1` (configuration not stated): 7% and -0.88.
The matching figures for `CCOc1ccc(-n2nc(CO)c(C(=O)NC3CC3)n2)cc1`: -9% and 1.62.
Taken in the same sequence, the figures for `COc1ccc(Cl)c(N2CCN(C(=O)[C@H]3CCCN(C(N)=O)C3)CC2)c1` were -3% and 0.43.
Take `Cc1ccc(-c2cccc(CN3CCC(CCC(=O)NC[C@H]4CCCO4)CC3)c2)o1`: the “% Inhibition” value is 8% and the Z score is recorded as -1.1.
Take `Cc1csc(CN(C)Cc2sc(N(C)C)nc2C)n1`: the “% Inhibition” value is reported as -5% and the Z score came out at 0.58.
As to `O=C(c1cccs1)N1CCN(Cc2noc3ccccc23)CC1`, the “% Inhibition” value is on record as -15% and the Z score is 1.73.
Taken in the same sequence, the figures for `CC(CCN1CCOCC12CCOC2)c1ccccc1` (configuration not stated) were 8% and -1.48.
Take `CC(C)Cc1nnc(NC(=O)NC2C3CCOC3C23CCC3)s1` (configuration not stated): the “% Inhibition” value is -2% and the Z score is listed as 0.31.
Regarding `Cc1cc(C(=O)N2CCO[C@H](c3ccccc3)C2)c(C)o1`, the “% Inhibition” value is on record as -3% and the Z score is on record as 0.4.
The matching figures for `O=C(COc1ccc2c(c1)OCO2)NCCCn1ncccc1=O`: -19% and 3.69.
Consider `CCN1CCN(C(=O)CC2CCN(c3ncnc4c3ncn4C)CC2)CC1`, for which the “% Inhibition” value stood at 5% and the Z score is reported as -0.87.
The matching figures for `COc1cc2c(cc1OC)[C@@H](NC(=O)c1cc(C(C)C)[nH]n1)CC2`: -9% and 1.21.
`O=C(NCCCN1CCOCC1)c1ccc2c(c1)NC(=O)[C@@H]1CCCCN21`: the “% Inhibition” value is reported as -11% and the Z score was determined as 1.62.
The matching figures for `COc1ccc(OCC(=O)/N=C(\N)Nc2nc3ccccc3o2)cc1`: 0% and 0.03.
For the compound `COc1ccc(-c2nc(Cn3cnc4ccccc4c3=O)no2)c(OC)c1`, the “% Inhibition” value is on record as -9% and the Z score is listed as 1.05.
Take `Cc1nccc(N2CCOC[C@@H]2CC(C)C)n1`: the “% Inhibition” value is reported as -11% and the Z score turned out to be 1.57.
Taken in the same sequence, the figures for `O=C(NS(=O)(=O)CC1CC1)c1cccc(F)c1Cl` were -5% and 0.61.
Taken in the same sequence, the figures for `C=CCC[C@@H](CN1CCC(C(=O)O)CC1)Oc1ccc(Cl)cn1` were -4% and 0.74.
The matching figures for `COc1cccc(CNS(=O)(=O)c2c(C)[nH]c(C)c2-c2nc(C)no2)c1`: -4% and 0.72.
For `COc1ccc(C(=O)NCCc2ccc(S(N)(=O)=O)cc2)nn1`, the “% Inhibition” value worked out at 0% and the Z score is reported as -0.03.
Taken in the same sequence, the figures for `CN(C)c1cc(C(=O)N[C@H](c2ccccc2)c2cc3ccccc3o2)ccn1` were -5% and 0.72.
Taken in the same sequence, the figures for `Cc1c(C(=O)N2CCC(C)CC2)c(S(=O)(=O)N2CCCCC2)c(C)n1C` were -4% and 0.8.
Taken in the same sequence, the figures for `CC1CN(C(=O)NCc2ccnn2C)CC(c2ccsc2)O1` (configuration not stated) were 8% and -1.23.
Take `O=C(NCc1cccnc1N1CCOCC1)c1ccsc1`: the “% Inhibition” value was -5% and the Z score is 0.53.
Taken in the same sequence, the figures for `CC(C)CN(C(=O)Cn1ccc(=O)cc1)C(C)C` were 1% and -0.09.
The matching figures for `CCOc1ccc(CC(=O)N2C[C@@H]3C[C@H]2C[C@@H]3NC(=O)c2cccs2)cc1`: -6% and 0.84.
With `CN(C)c1cncc(NC(=O)c2cccc(N)c2)c1`, the “% Inhibition” value amounted to 14% and the Z score is -1.63.
Take `C[C@H]1CN(Cc2c(Cl)cccc2N2CCOCC2)CCN1S(C)(=O)=O`: the “% Inhibition” value is reported as 20% and the Z score is reported as -2.31.
As to `CN(C(=O)Cc1ccc(F)cc1)[C@H]1CC(=O)N(Cc2ccccc2)C1=O`, the “% Inhibition” value is on record as -6% and the Z score amounted to 0.88.
The matching figures for `CCc1cc(NC(=O)NC(C)(C)CO)ccc1C`: -15% and 1.72.
As to `Cc1ccc(N(C)C)cc1NC(=O)N1CCNC(=O)[C@@H]1c1ccc(F)cc1`, the “% Inhibition” value is reported as -8% and the Z score is recorded as 1.27.
Taken in the same sequence, the figures for `CO[C@@H](CN=C(N)N1CCOCC1)c1cccc(Cl)c1` were 12% and -2.2.
Regarding `CC(=O)N[C@H]1C[C@H]2CN(S(=O)(=O)Cc3ccccc3Cl)[C@@H](CC(C)C)C(=O)N2C1`, the “% Inhibition” value is -15% and the Z score is given as 1.3.
Taken in the same sequence, the figures for `CC(O)CNC1CCN(C)C(c2ccc(Br)cc2)C1` (configuration not stated) were 8% and -1.61.
